Test results from article PMC4336329 (PLoS ONE, 2015).
Out of some 310,000 compounds screened, about 2,200 (0.71%) showed an effect of 50% or more. The effect is printed as a negative number. Some of the results follow.

These compounds were tested against human ether-à-go-go-related gene (hERG) potassium channel (human, UniProt Q12809) (assay: primary screen, population patch clamp on CHO cells stably expressing hERG).
Chain of human ether-à-go-go-related gene (hERG) potassium channel (Q12809 whole entry, looked up): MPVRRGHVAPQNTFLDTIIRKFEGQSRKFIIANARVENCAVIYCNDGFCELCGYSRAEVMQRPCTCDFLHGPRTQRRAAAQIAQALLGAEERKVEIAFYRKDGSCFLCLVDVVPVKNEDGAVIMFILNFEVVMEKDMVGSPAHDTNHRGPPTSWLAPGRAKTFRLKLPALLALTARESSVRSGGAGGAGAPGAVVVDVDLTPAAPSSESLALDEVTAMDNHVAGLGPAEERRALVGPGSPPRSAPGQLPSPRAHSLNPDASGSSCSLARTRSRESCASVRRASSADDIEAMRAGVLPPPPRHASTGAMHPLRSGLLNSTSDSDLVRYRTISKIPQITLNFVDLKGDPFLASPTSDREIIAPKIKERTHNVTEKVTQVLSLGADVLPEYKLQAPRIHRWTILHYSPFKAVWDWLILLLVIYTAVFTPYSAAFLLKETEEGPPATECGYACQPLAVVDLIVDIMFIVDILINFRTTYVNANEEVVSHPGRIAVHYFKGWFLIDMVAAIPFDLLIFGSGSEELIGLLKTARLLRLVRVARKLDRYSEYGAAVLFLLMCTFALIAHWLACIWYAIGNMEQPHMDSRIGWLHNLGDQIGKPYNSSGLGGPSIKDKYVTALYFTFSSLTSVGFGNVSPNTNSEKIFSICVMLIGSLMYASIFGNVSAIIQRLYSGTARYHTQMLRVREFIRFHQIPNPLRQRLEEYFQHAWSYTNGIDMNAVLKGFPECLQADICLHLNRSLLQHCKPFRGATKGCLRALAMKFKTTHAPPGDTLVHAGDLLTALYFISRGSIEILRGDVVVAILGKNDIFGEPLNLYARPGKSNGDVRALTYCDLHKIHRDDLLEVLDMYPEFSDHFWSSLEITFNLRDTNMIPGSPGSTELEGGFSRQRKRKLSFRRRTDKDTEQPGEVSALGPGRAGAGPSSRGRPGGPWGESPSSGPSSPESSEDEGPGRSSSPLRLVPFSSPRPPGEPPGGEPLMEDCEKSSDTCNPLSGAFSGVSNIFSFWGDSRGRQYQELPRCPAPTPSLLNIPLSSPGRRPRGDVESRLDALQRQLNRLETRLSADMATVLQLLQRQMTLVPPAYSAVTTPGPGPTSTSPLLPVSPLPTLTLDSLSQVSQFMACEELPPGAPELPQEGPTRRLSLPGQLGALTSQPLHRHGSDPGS

| Compound | hERG current change (%, negative = inhibition) at 1uM |
| --- | --- |
| CCN1CCN(S(=O)(=O)c2cccc3nsnc23)CC1 | 3.58% |
| O=C(NCc1ccc(F)cc1)c1cc(-c2ccncc2)nc2ccccc12 | -33.2% |
| CC(C)C(=O)N1CCC(CN=CC2=C(O)CC(C)(C)CC2=O)CC1 | 5.83% |
| C/C(CC(=O)Nc1cccnc1)=N\NC(=O)C(=O)Nc1cccc(C)c1 | 17% |
| O=C(NCc1cccs1)C1CCCN1C(=O)Nc1cccc(Cl)c1 (stereo not drawn) | 10.5% |
| Nc1ccnn1Cc1cccs1 | -3.12% |
| CCOC(=O)C(Sc1n[nH]c(N)n1)c1ccccc1 (stereo not drawn) | 8.42% |
| Cc1ccc(NC(=S)N2CCCC2)cc1C | 18.9% |
| CC(C)(C)OC(=O)NCc1ccc(CNC(=O)c2nc[nH]c2C(=O)N2CCN(C(=O)OC(C)(C)C)CC2)cc1 | 14.4% |
| O=C(N/N=C/c1c(F)c(F)c(F)c(F)c1F)c1cccc(S(=O)(=O)N2CCOCC2)c1 | 13.4% |
| O=C(NC1CCCCC1)c1c2c(nc3ccccc13)CCC2 | 13% |
| O=C(NCCc1c[nH]c2ccccc12)C(=O)NCC1CCCO1 (stereo not drawn) | 18.2% |
| O=C(NCCOc1ccccc1Cl)C(=O)c1c[nH]c2ccccc12 | 11.6% |
| Cc1c(-c2ccccc2)sc2nc[nH]c(=S)c12 | 6.23% |
| C=CCNc1nc(N2CCOCC2)c(C#N)c2c1CN(C)CC2 | -5.08% |
| O=C(CN(c1cccc(C(F)(F)F)c1)S(=O)(=O)c1ccc(Cl)c([N+](=O)[O-])c1)NCc1ccc(F)cc1 | 11.3% |
| COc1cccc(CC2(CO)CCN(Cc3ccc(NC(C)=O)cc3)CC2)c1 | 1.37% |
| Cc1ccc2nc(C)cc(Nc3ccc4c(c3)OCCO4)c2c1.Cl | -27.9% |
| O=C(NN=C1c2ccccc2-c2ccccc21)c1cccc(Br)c1 | 17.7% |
| COc1ccc(C(=O)CSC#N)cc1OC | 10.8% |
| CC1(C)CC(=O)C2=C(C1)OC(/N=C/N1CCCC1)=C(C#N)C2c1ccccc1 (stereo not drawn) | 7.1% |
| O=C(CSC1=NCCN1)Nc1ccccc1[N+](=O)[O-] | 10.9% |
| COC(=O)c1cc(NC(=O)C2COc3ccccc3O2)cc(C(=O)OC)c1 (stereo not drawn) | -2.91% |

| Compound | hERG current change (%, negative = inhibition) at 1uM |
| --- | --- |
| O=S(=O)(Nc1ccc(Cl)nn1)c1ccccc1 | 10.2% |
| C[CH2][Hg][S]c1ccccc1C(=O)[O-].[Na+] | 15.9% |
| CCOC(=O)CNC(=O)COc1coc(CN2CCN(c3ccccc3F)CC2)cc1=O | 42.8% |
| O=C(O)c1c(-c2ccccc2)c2oc3ccccc3c2[nH]c1=O | -5.12% |
| CC(C)c1ccc(OCC(=O)NCCO)cc1 | 26.5% |
| CCOC(=O)C1CCN(C(=O)c2ccccc2NS(=O)(=O)c2cc(C)ccc2C)CC1 | -5.03% |
| COC(=O)c1ccc(CSc2nc3c(c(=O)n2-c2ccc(Br)cc2)SCC3)o1 | 9.83% |
| CC(C)c1ccc(/C=N/n2cnnc2)cc1 | 6.76% |
| O=C1C=C(O)c2c(O)cccc2C1=O | 12.7% |
| FC(F)(F)c1nc(-c2ccncc2)ncc1-c1nnnn1-c1ccccc1 | 13.6% |
| Cc1ccc(-n2nnnc2-c2cnc(N3CCCC3)nc2C(F)(F)F)cc1 | 1.25% |
| CCCCCCSc1nnc(-c2cnn(-c3ccccc3)c2-n2cccc2)n1C | 6.19% |
| C=CCN(CC=C)C(=O)C1CCC(C(=O)N(CC=C)CC=C)CC1 (stereo not drawn) | 8.47% |
| CCOC(=O)N1CCN(Cc2cc(Cl)c3cccnc3c2O)CC1 | 5.41% |
| Cc1cccc(C)c1NC(=O)CN(C)C(C)C(=O)NCC(=O)Nc1ccc(F)c(F)c1F (stereo not drawn) | 9.59% |
| O=C(NC(=O)N1CCN(c2ccc([N+](=O)[O-])cn2)CC1)c1c(Cl)cccc1Cl | 9.87% |
| COc1ccccc1OCC(=O)Nc1ccccc1C(=O)NCc1cccnc1 | -2.19% |
| CCCCCn1c(=O)c(C(=O)NCc2ccco2)c(O)c2ccccc21 | -1.78% |
| COc1ccc(OCCOCCN2CCN(C)CC2)cc1.O=C(O)C(=O)O | 6.48% |
| CCOC(=O)COc1ccc(C)cc1-c1ccno1 | -1.23% |
| COc1cc(C(=O)OCC(=O)c2ccccc2)cc2c1OCCO2 | 16.7% |
| CCC(=O)NC(NC(=S)Nc1ccccc1Br)C(Cl)(Cl)Cl (stereo not drawn) | 9% |
